Experimental data taken from PubChem BioAssay AID1466 (National Center for Advancing Translational Sciences (NCATS), 2008).
About 10 (0.005%) of roughly 200,000 compounds were called active. The shares of active, inactive and inconclusive entries below differ from those in the screen. The call rests on the fitted dose curve; in most records, active means well fitted inhibition curve with a large enough effect; inconclusive means small, poorly fitted or top-dose-only effect, or effect the other way, or another doubt; inactive means no such curve, though single readings can be large or run the other way. No potency is given beside an inconclusive call; the fits are too rough.

Each compound was assayed against Lysosomal alpha-glucosidase (Homo sapiens) (UniProt P10253) (assay: qHTS Assay for Inhibitors of Human alpha-Glucosidase as a Potential Chaperone Treatment of Pompe Disease). Settings: purified human GAA, 4-MU-alpha-glucoside fluorescence; activity change, negative = inhibition: at 76.9 µM (top of the series) unless noted.
Method in brief: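 Fluorescence at Ex 365/Em 440 nm from 4-methylumbelliferone reported enzyme activity after 20 min at room temperature. Reactions used 4 nM enzyme and 400 uM substrate at pH 5.0; curves fitted with the Hill equation.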
Potency means the concentration at half of the fitted maximal effect; tags describe the fitted curve by direction and shape.
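Wherever activity change, negative = inhibition is given: plate controls were uninhibited enzyme wells for no effect and no-enzyme background for full effect.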

SMILES	activity change, negative = inhibition	Potency
COC(=O)c1[nH]c2cccc(Cl)c2c1NC(=O)CN(C)C1CCCCC1	inconclusive: -20.1% [inhibitor]	
CCCOC(=O)Nc1sc2c(c1C(=O)OCC)CCC2		inconclusive [inhibitor, full curve]
COc1ccc(NS(=O)(=O)c2cc(NC(=O)c3cccc(OCc4c(C)noc4C)c3)ccc2OC)cc1		inconclusive [inhibitor, full curve]
CCN(CC)S(=O)(=O)c1ccc(-c2cc(C(=O)OC)sc2C(F)(F)F)cc1		inconclusive [inhibitor, partial curve]
COc1ccc(/C=C/c2nnc(NC(=O)COc3ccc(C)cc3)s2)cc1		inconclusive [activator, partial curve]
N#Cc1c(N)nc2c(c1-c1ccccc1)CCC2	inconclusive: 22.8% [activator]	
Cc1cc(C)cc(-n2nnnc2SCC(=O)N2CCOCC2)c1		inconclusive [inhibitor, single point]
Cc1ccc(S(=O)(=O)Nc2ccc(-c3nc4ccc(C)cc4s3)cc2)cc1		inconclusive [activator, partial curve]
C=CCn1c(=S)[nH]c2nc3c(cc2c1=O)CCCC3		inconclusive [inhibitor, single point]
[O-][n+]1c2c(nn1-c1ccccc1)/C(=N/O)CCC2	inconclusive: 18.1% [activator]	
OC1CCN(c2cc(-c3ccccc3)nc3cc(-c4ccc(F)cc4)nn23)CC1		inconclusive [activator, partial curve]
COc1c(/C=N/Nc2nc(N3CCCCC3)nc(N3CCCCC3)n2)cccc1[N+](=O)[O-]		inconclusive [inhibitor, partial curve]
CC1(C)C([N+](=O)[O-])C(c2ccc(O)cc2)NC(c2ccc(O)cc2)C1[N+](=O)[O-] (configuration not stated)	inactive: -1.53%	
COc1ccccc1CN1CCNC(=O)C1CC(=O)NCc1cn(C)nc1C (configuration not stated)	inconclusive: 16.6% [activator]	
O=c1oc2ccc3ccccc3c2c2c1SC(C(F)(F)F)C2 (configuration not stated)		inconclusive [activator, partial curve]
N#Cc1c(-c2ccco2)cc(-c2cccnc2)nc1N		inconclusive [activator, partial curve]
Clc1ccc(C2=Nn3c(nnc3-c3n[nH]c4c3CCC4)SC2)cc1		inconclusive [inhibitor, partial curve]
C=CCNc1ncnc2c1[nH]c1ccc(Cl)cc12		inconclusive [inhibitor, single point]
CCCCOc1ccc(C(=O)Nn2cnnc2)cc1		inconclusive [activator, full curve, poor fit]
COc1cc(OC)cc(C(=O)NC(=S)N2CCN(c3ccc(C(F)(F)F)cc3[N+](=O)[O-])CC2)c1		inconclusive [inhibitor, full curve, poor fit]
Cc1ccc(S(=O)(=O)NC(CC(=O)NCC2CCCO2)c2ccccc2)cc1 (configuration not stated)	inconclusive: 8.92% [activator]	

SMILES	activity change, negative = inhibition	Potency
O=C(CN1CCN(S(=O)(=O)c2ccc(F)cc2)CC1)c1ccc(O)c(O)c1		inconclusive [inhibitor, single point]
Cc1cccc(S(=O)(=O)N2CCC(CO)(Cc3ccccc3)CC2)c1		inconclusive [activator, full curve, poor fit]
C/C(=N\N=C(/N)SC1CC(=O)N(c2ccc(Cl)c(Cl)c2)C1=O)c1cccs1 (configuration not stated)		inconclusive [inhibitor, partial curve, poor fit]
FC(F)(F)c1ccccc1NC(=S)NC1CCN(Cc2ccccc2)CC1	inconclusive: 9.67% [activator]	
Cc1sc(NC(=O)c2ccc(OCC(C)C)cc2)c(C(N)=O)c1-c1ccc(Cl)cc1Cl		inconclusive [activator, single point]
CCn1c(=N)c(C(=O)NCCCOC)cc2c(=O)n3cccc(C)c3nc21		inconclusive [activator, partial curve]
COc1ccc(C(=O)NCCc2cc3ccc(C)c(C)c3[nH]c2=O)cc1OC	inconclusive: 20.3% [activator]	
Cc1ccc(N(CC(=O)N2CCn3c2nc2ccccc23)S(=O)(=O)c2c(C)n[nH]c2C)cc1		inconclusive [inhibitor, full curve]
N#CC1=C(N)N(c2ccccc2)C(c2ccccc2)C1(C#N)C#N (configuration not stated)	inconclusive: 17.3% [activator]	
CCCSc1nnc2n(-c3ccccc3OC)c(=O)c3c4c(sc3n12)CCC4	inconclusive: 17% [activator]	
COCCn1c(=NC(=O)c2sc3ccccc3c2Cl)sc2cc(S(N)(=O)=O)ccc21	inconclusive: 16.9% [activator]	
N#Cc1cc2c(=O)n3ccccc3nc2n(Cc2ccco2)c1=NC(=O)c1ccco1		inconclusive [activator, partial curve]
Cc1ccc(CNC(=O)/C=C/c2cccs2)cc1		inconclusive [inhibitor, partial curve, poor fit]
COc1ccc(CNC(=O)C(=O)NCc2cccnc2)cc1	inconclusive: 19% [activator]	
Cc1ccc(-c2nc(C)sc2CC(=O)OCC(=O)Nc2c(F)cccc2F)cc1		inconclusive [inhibitor, single point]
Cn1c(Cn2nnc3ccccc32)nnc1SCC(N)=O		inconclusive [activator, single point]
CSCC[C@H](NC(=O)C(C)Oc1ccc(Cl)cc1)c1nc2ccccc2[nH]1 (some centres not stated)		inconclusive [inhibitor, single point]
Cc1cc(-c2cccs2)nc(-n2cccc2)n1		inconclusive [inhibitor, full curve, poor fit]
C=CCOCCN(C)C1=NS(=O)(=O)c2ccccc21	inconclusive: 15.1% [activator]	
O=C(CN1C(=O)CC(c2ccccc2)=Nc2ccccc21)NCc1ccco1	inconclusive: -18.6% [inhibitor]	
Cc1cc([N+](=O)[O-])ccc1NC(=O)c1cncc(Br)c1		inconclusive [inhibitor, single point]

SMILES	activity change, negative = inhibition	Potency
Cc1nn(-c2ccccc2)c2c1C(c1ccc([N+](=O)[O-])cc1)N1C(=N2)C(=O)Nc2ccccc21 (configuration not stated)		inconclusive [inhibitor, single point]
Cc1ccc2ncc([N+](=O)[O-])n2c1	inconclusive: 4.05% [activator]	
COc1ccc(/C=C/C(=O)N(Cc2ccccc2)c2ccccn2)cc1OC	inconclusive: 14.3% [activator]	
Cc1ccc(OCC(=O)Nc2ccc(N3CCOCC3)cc2)cc1		inconclusive [inhibitor, single point]
Cc1onc(-c2ccccc2)c1C(=O)N1CCOC12CCN(c1cccc(F)n1)CC2		inconclusive [inhibitor, single point]
Cc1ccc2nc(-c3ccc(NC(=O)CN(c4ccccc4C)S(C)(=O)=O)cc3)sc2c1		inconclusive [activator, single point]
CNS(=O)(=O)c1cc(N(C)S(=O)(=O)c2ccc(C)cc2)c(C)cc1C		inconclusive [inhibitor, single point]
O=C(CSc1nnc(-c2cccs2)n1-c1cccc(Cl)c1)c1cccc2c1OCCO2		inconclusive [inhibitor, partial curve]
O=C(c1cccc2ccccc12)N1CCN=C1SCc1ccc([N+](=O)[O-])cc1		inconclusive [inhibitor, partial curve, poor fit]
Cc1cccc(C(C)C)c1NC(=O)c1ccc(COc2ccc3c(C)cc(=O)oc3c2)cc1		inconclusive [inhibitor, full curve]
O=C(NCC1CCCO1)/C(=C/c1ccc(Cl)cc1)NC(=O)c1ccccc1 (configuration not stated)		inconclusive [inhibitor, single point]
N#CCCN1CCN(S(=O)(=O)c2ccc(S(=O)(=O)N3CCCCCC3)cc2)CC1		inconclusive [inhibitor, partial curve]
CCCCn1c(NS(=O)(=O)c2ccccc2)c(S(=O)(=O)c2ccc(C)cc2)c2nc3ccccc3nc21		inconclusive [activator, partial curve]
COc1ccc(N2CCN(C(c3cccc(OC)c3OC)c3nnnn3C3CCCC3)CC2)cc1 (configuration not stated)		inconclusive [inhibitor, single point]
CCCCCCOc1ccc(NC(=O)CC2C(=O)N(CC)C(=S)N2Cc2ccco2)cc1 (configuration not stated)		inconclusive [inhibitor, single point]
CCCCN1C(=O)N(C)C2NC(=O)NC21 (configuration not stated)		inconclusive [inhibitor, single point]
CC12CC(O)C3c4ccc(O)cc4CCC3C1CCC2=O (configuration not stated)	inconclusive: 18.4% [activator]	
COc1ccc(NC(=O)c2ccc(=O)oc2)cc1		inconclusive [inhibitor, single point]
Cc1cccc(-n2cnc3c(c2=O)c2nc4ccccc4nc2n3Cc2ccco2)c1		inconclusive [inhibitor, partial curve, poor fit]
COC(=O)Cc1c(O)ccn(Cc2ccc(F)cc2)c1=O		inconclusive [inhibitor, single point]
